Data reported in PubChem BioAssay AID1745853 (National Center for Advancing Translational Sciences (NCATS), 2022).
Where “and” joins values, the source holds several entries; their conditions need not be identical. Equal values may be shown once. The list shows a part of the results. Further columns of the screen follow, without active or inactive calls.

Legend:
Assay in all cases: Primary Screen for Target Class Profiling of Small Molecule Inhibitors of Methyltransferases
[1] = target: Glycine N-methyltransferase (Homo sapiens) (UniProt Q14749); settings: purified enzyme, MTase-Glo SAH luminescence; measured here: GNMT inhibition; at 40 µM; stronger effect = lower value
Procedure, shortened: (§1)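 Each enzyme was reacted with SAM and its substrate, with compounds tested once at 40 uM; SAH formed was read by MTase-Glo luminescence.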

[2] = target: Guanidinoacetate N-methyltransferase (Homo sapiens) (UniProt Q14353); settings: purified enzyme, MTase-Glo SAH luminescence; measured here: GAMT inhibition; at 40 µM; stronger effect = lower value
Procedure, shortened: as §1

[3] = target: Histamine N-methyltransferase (Homo sapiens) (UniProt P50135); settings: purified enzyme, MTase-Glo SAH luminescence; measured here: HNMT inhibition; at 40 µM; stronger effect = lower value
Procedure, shortened: as §1

[4] = target: Nicotinamide N-methyltransferase (Homo sapiens) (UniProt P40261); settings: purified enzyme, MTase-Glo SAH luminescence; measured here: NNMT inhibition; at 40 µM; stronger effect = lower value
Procedure, shortened: as §1

[5] = target: Phenylethanolamine N-methyltransferase (Homo sapiens) (UniProt P11086); settings: purified enzyme, MTase-Glo SAH luminescence; measured here: PNMT inhibition; at 40 µM; stronger effect = lower value
Procedure, shortened: as §1
On the % scale 0 is the no-effect control and ±100 the full control effect.

Structure (SMILES) | activity change, negative = inhibition [1] | activity change, negative = inhibition [2] | activity change, negative = inhibition [3] | activity change, negative = inhibition [4] | activity change, negative = inhibition [5]
CC1(C(=O)NC2CCCCC2)Cn2nc(-c3cccs3)cc2C(=O)N1Cc1cccc(Cl)c1 (configuration not stated) | 2.13% | 0% | 10.2% | 6.31% | 3.3%
O=c1c(-c2ccc(O)cc2)coc2cc(O)cc(O)c12 | -10% | 7.87% | -7.86% | -17.9% | 3.15%
Cc1cccc(NC(=O)c2ncn3c2C(=O)N(C2CC2)C(C)(C(=O)NCc2ccc(F)cc2)C3)c1C (configuration not stated) | 1.16% | 0% | 12.3% | 8.29% | 6.22%
O=C(NCc1ccc2c(c1)CCCO2)c1ccc(C2CCNC2)cc1 (configuration not stated) | -2.58% | 1.02% | -36.5% | -8.7% | 6.42%
C[C@H]1[C@@H]2[C@@H](O)C([C@H](C)C(=O)NCc3cccs3)CC[C@@]2(C)CC[C@@H]1NC(=O)COc1ccccc1 (some centres not stated) | -7.59% | -8.51% | -5.93% | -7.01% | -4.21%
COC(=O)c1ccc(OC(CO)C(O)c2ccc(O)c(OC)c2)c(OC)c1 (configuration not stated) | -7.4% | -6.24% | 0.275% | -16.5% | -15.4%
Cc1cc(N2CCOCC2)ccc1Nc1nc(NC2CCCCC2)c2[nH]cnc2n1 | -4.88% | -5.08% | -19% | -74.8% | -28.5%
C[C@H](NC(=O)Cc1cc(F)cc(F)c1)C(=O)N[C@@H]1C(=O)N(C)c2ccccc2-c2ccccc21 | -4.3% | -1.87% and -13.5% and -22.3% | 5.26% | -38.4% and -39.4% and -46.7% | -13.8% and -8.07% and -19.1%
O=C(NCC1(Cn2cccn2)CC1)c1ccc(C2CCNC2)cc1 (configuration not stated) | -0.281% | -5.1% | -4.29% | 3.55% | 0.12%
O=C(Cn1ccc2cc(S(=O)(=O)N3CCCCC3)ccc21)NCCc1ccccc1 | 1.77% | 1.91% | 0.687% | -6.92% | -4.27%
CCN1CCN(CCNC(=O)Cn2ccc3cc(S(=O)(=O)N4CCCCC4)ccc32)CC1 | 3.55% | 2.61% | -25.2% | -1.75% | -3.03%
CN1CCN(CCCNC(=O)CCCn2nc(-c3ccccc3)c3cc(Cl)ccc32)CC1 | -0.292% | 4.81% | -5.58% | 9.34% | -7.27%
O=C(O)c1ccc(Nc2ncc3c(n2)-c2ccc(Cl)cc2C(c2c(F)cccc2F)=NC3)cc1 | -10.3% | 1.58% | -2.1% | -25.6% | -4.06%
Clc1cc2c(NC3CCCC3)nnc(-c3ccncc3)c2cc1Cl | -18.8% | 1.04% | -6.8% | -24.5% | -9.45%
CCC(C)NC(=O)c1ccc2c(=O)n(Cc3ccccc3)c3nn(Cc4ccccc4F)c(=O)n3c2c1 (configuration not stated) | 2.12% | 2.96% | 0.816% | -4.27% | -0.004%
CC[C@@H](Nc1c(Nc2cccc(C(=O)N(C)C)c2O)c(=O)c1=O)c1cc(C(C)C)co1 | 4.21% | -2.28% | -2.92% | -21.9% | -15.2%
COCCCN1C(=O)c2nc3ccccc3n2CC1(C)C(=O)NC1CCCCCC1 (configuration not stated) | 3.91% | 0% | 7.76% | 9.39% | 1.01%
COC(=O)[C@H]1[C@H]2C[C@@H]3c4[nH]c5cc(OC)ccc5c4CCN3C[C@H]2C[C@@H](OC(=O)c2cc(OC)c(OC)c(OC)c2)[C@@H]1OC | -2.79% and -25.6% | -6.24% and -2.95% | 0.616% and -9.04% | -45.8% and -32.4% | -3.1% and -9.21%
CN(C)[C@@H]1CO[C@H](CNC(=O)CC(C)(C)C)[C@H]1O | -1.09% | -0.685% | -1.49% | -1.6% | -1.67%
CCc1cc2c(cc3n2CC(C)(C(=O)NC2CCCCCC2)N(c2cccc(Cl)c2C)C3=O)s1 (configuration not stated) | 0.532% | 4.92% | -0.515% | 3.6% | -2.27%

Structure (SMILES) | activity change, negative = inhibition [1] | activity change, negative = inhibition [2] | activity change, negative = inhibition [3] | activity change, negative = inhibition [4] | activity change, negative = inhibition [5]
CCCN1C(=O)c2cc(-c3ccccc3)nn2CC1(C)C(=O)NCc1ccccc1 (configuration not stated) | 1.09% | 0.561% | 2.4% | 8.34% | -1.48%
CCn1ncc(CN2C[C@@H](COC)[C@H](c3ccncc3)C2)c1C | -2.61% | 0.426% | -1.72% | -8.4% | -1.35%
C/C(=C\CCC(C)C1=CCC2(C)OC3=C(CC12)C(=O)C(O)CC3)CO (configuration not stated) | -2.53% | -5.79% | 3.71% | -22.2% | -18.7%
NCCC(=O)N1CCCC(N2CCN(c3ccccc3F)CC2)C1 (configuration not stated) | -0.231% | -0.454% | 1.41% | -0.908% | -1.16%
NC(=O)c1csc(C2OC(CO)C(O)C2O)n1 (configuration not stated) | 7.78% | 1.31% | 11.5% | -4.13% | 8.42%
Cc1ccc(C)c(NC(=O)Cn2c(=O)oc3cc(S(=O)(=O)N4CCCC4)ccc32)c1 | -8.72% | 1.05% | -7.5% | -3.78% | -8.36%
COc1ccc(-c2cc3n(n2)CC(C)(C(=O)NCc2ccccc2OC)N(Cc2ccc(Cl)cc2)C3=O)cc1 (configuration not stated) | 4.25% | 3.72% | 4.74% | -2.96% | -0.061%
O=C(c1n[nH]c2c1CCCCCC2)N1CCc2c(nc3cc(-c4ccccc4)[nH]n3c2=O)C1 | -17.6% | -4.71% | -7.14% | -6.86% | -7.76%
O=C(O)CN(CCOCCOCCN(CC(=O)O)CC(=O)O)CC(=O)O | 1.02% | 8.55% | 1.4% | -8.05% | 0.363%
C[C@@H]1O[C@@H](OC(=O)Cc2ccccc2)[C@H](O)[C@H](O)[C@H]1O | -0.76% | -4.51% | 5.16% | -11.6% | -9.44%
Cc1ccsc1CN1CCCC(O)(CN(C)C)C1 (configuration not stated) | -4.45% | -7.14% | -1.83% | -0.857% | -3.71%
CC1(C)CC23[C@@H]4CC(=O)[C@@H]2COC(=O)[C@@H]3CC[C@H]41 | -1.46% | 1.24% | 6% | -10.5% | -0.512%
CC1(C)CC[C@]2(C(=O)O)CC[C@]3(C)C(=CCC4[C@@]5(C)C[C@@H](O)[C@H](O)C(CO)(CO)C5CC[C@]43C)C2[C@@H]1O (some centres not stated) | 0% | -12.1% | 5.6% | -21.5% | -11.5%
O=C(Cn1nc2n(Cc3ccccc3)c(=O)c3ccccc3n2c1=O)Nc1ccc2c(c1)OCCO2 | 4.07% | 2.82% | 8.03% | -3.26% | 0.326%
CC(C)C[C@H](NC(=O)[C@@H](O)[C@H](N)Cc1ccccc1)C(=O)O | -1.91% | 5.91% | 0.093% | -6.39% | 1.59%
CCc1cccc(N2C(=O)c3cc4ccc(OC)cc4n3CC2(C)C(=O)NC2CCCC2)c1 (configuration not stated) | 1.6% | 0% | 7.06% | 5.74% | -0.027%
CC(=O)O[C@@]12CO[C@@H]1C[C@H](O)[C@@]1(C)C(=O)[C@H](O)C3=C(C)[C@@H](OC(=O)[C@H](O)[C@@H](NC(=O)OC(C)(C)C)c4ccccc4)C[C@@](O)([C@@H](OC(=O)c4ccccc4)C12)C3(C)C (some centres not stated) | -1.07% | – | 9.98% | – | –
N#CCC(C1CCCC1)n1cc(-c2ncnc3[nH]ccc23)cn1 (configuration not stated) | -1.73% | – | -9% | – | –
COc1ccc(OC)c(CCN2C(=O)c3cc4sccc4n3CC2(C)C(=O)NC2CCCC2)c1 (configuration not stated) | -6.4% | 5.35% | -7.31% | -11.2% | -10.4%
COc1ccc(-c2cc3n(n2)CC(C)(C(=O)NCc2ccccc2)N(Cc2ccccc2Cl)C3=O)cc1 (configuration not stated) | -5.78% | 3.18% | -3.51% | -6.4% | -4.24%

Structure (SMILES) | activity change, negative = inhibition [1] | activity change, negative = inhibition [2] | activity change, negative = inhibition [3] | activity change, negative = inhibition [4] | activity change, negative = inhibition [5]
COc1ncccc1-c1cc(-c2c(C)noc2C)c2cncn2c1 | -19.4% | -10.9% | -8.14% | -24.9% | -30.8%
N[C@H](C(=O)O)[C@H](O)C(=O)O | 12.1% | 13.3% | 13.3% | -4.94% | 1.08%
COC1CC(=O)C23C(=O)NC(Cc4c[nH]c5ccccc45)C2C(C)C2(C)OC2C3/C=C/CC(C)CC1O (configuration not stated) | -3.02% | -2.06% | 7.35% | -16.3% | -6.2%
Cc1ccc(Cn2c(=O)c3ccccc3n3c(CCC(=O)Nc4ccccc4)nnc23)cc1 | -5.67% | 5.82% | 3.64% | 2.58% | -2.92%
COC(=O)c1ccc(CNC(=O)CC2c3cccnc3C(=O)N2c2ccccc2)cc1 (configuration not stated) | -3.44% | -2.17% | -0.754% | -13.8% | -0.478%
CN1C(=O)c2cc(C(=O)NCc3cccc(Cl)c3)nn2CC1(C)C(=O)NCc1ccccc1 (configuration not stated) | -3.15% | 0% | -3.12% | -2.59% | -1.55%
O=S(=O)(c1ccc2[nH]c3c(c2c1)CCCC3)N1CCOc2ccc(Cl)cc21 | 13% | 2.07% | 8.4% | -0.144% | 7.44%
COC(=O)N1CCC2(C1)N=C(c1ccncc1)C(=O)N2 (configuration not stated) | -5.1% | -6.93% | -3.58% | -9.67% | -7.28%
CC(C)Cn1c(=O)c2ccccc2n2c(CCC(=O)N3CCN(Cc4ccccc4)CC3)nnc12 | -11.2% | 3.32% | 4.02% | -37.6% | -0.692%
CC1=C(C(=O)Nc2cc3cn[nH]c3cc2F)C(c2ccc(Cl)cc2F)N=C(c2ccnc(Cl)c2)N1 (configuration not stated) | -5.02% | 2.44% | 4.01% | -28.3% | -25%
Cc1nnc(-c2cc(-c3ccccc3Oc3ccccc3)ccn2)n1C | -14.2% | -7.16% | -13.9% | -29.3% | -12.9%
CCC(C(=O)NCc1ccco1)n1ccc2cc(S(=O)(=O)N3CCCCC3)ccc21 (configuration not stated) | -3.54% | 4.26% | 0.454% | -1.59% | -0.334%
CC1CCCCN1CCCN1C(=O)c2cc3occc3n2CC1(C)C(=O)NC1CCCCCCC1 (configuration not stated) | 2.65% | -0.069% | 0.269% | 0.101% | 2.3%
Cc1ccc2c(Nc3ccc(Cl)cc3)nccc2c1Nc1ncccc1-c1ncnc2nc[nH]c12 | 6.72% | 2.57% | 11.9% | -19.4% | 5.17%
CCN(CC)C(=O)CC[C@@H]1CNC(=O)[C@@H]2C[C@H](NC(=O)Nc3ccsc3)CN12 | -6.33% | -8% | -2.43% | -7.87% | -5.22%
COC(=O)C1=CO[C@@H](O[C@@H]2O[C@H](CO)[C@@H](O)[C@H](O)[C@H]2O)[C@@H]2C(C)CC(=O)[C@]12O (some centres not stated) | -3.52% | -11% | 1.11% | -17.7% | -2.91%
O=C1CC(c2noc(-c3cccs3)n2)CN1C1CCCCC1 (configuration not stated) | -0.132% | 4.11% | -3.02% | -5.58% | -2.32%
COc1ccc(NC(=O)CSc2nnc3n(CC(C)C)c(=O)c4ccccc4n23)cc1 | -7.05% | 0% | 13.8% | 1.52% | 4.22%
CC(C)(C)c1ccc(S(=O)(=O)Nc2ccc(-n3ccnc3)cc2)cc1 | – | 3.24% | – | -33% | -9.72%
